From the supplement of paper PMC4967469
Lines with a small IC50 respond at low doses; a limit (>, <) means that the fit lies beyond the doses tested. For AUC the same curve is integrated over the 256-fold range of doses and scaled to a fraction: 1 means no effect, lower means more sensitive. A top dose marked as inferred was calculated from the reported fits. For some assays here: An entry number marks a drug with two screens in the source, which often give different values.

These cell lines were tested with Cc1cc(N2CCOCC2)cc2[nH]c(-c3c(NC[C@@H](O)c4cccc(Cl)c4)cc[nH]c3=O)nc12 [BMS-536924] (assay: Viability of human cancer cell lines after 72 h of drug (GDSC screen)). Details: top dose 4 µM; screen: GDSC drug entry 1091; top dose inferred.
Procedure: (§1)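 Human cancer cell lines in 384-well plates, medium with 10% serum, drug for 72 h over a 256-fold dose range (nine 2-fold or five 4-fold steps up to the top dose). Adherent lines were fixed and stained with the nucleic acid dye Syto60, suspension lines read with resazurin; signal relative to control wells, capped at 0 and 100%. One two-parameter sigmoid per drug and line, fitted in a mixed model over all curves with the slope shared within a line.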
786-0 (kidney, adherent) showed an AUC of 0.951 and an IC50 greater than 4 µM. Cell Line A172 (glioma, adherent) has an AUC of 0.967 and an IC50 greater than 4 µM. Cell Line BALL-1 (B-cell leukaemia, suspension) has an AUC of 0.997 and an IC50 greater than 4 µM. In the case of BCPAP (thyroid, adherent), the AUC is reported as 0.918 and the IC50 is reported as greater than 4 µM. BHY (head and neck, adherent) showed an AUC of 0.944 and an IC50 greater than 4 µM. BPH-1 (prostate, adherent) gave an AUC of 0.803 and an IC50 of 2.25 µM. Work on BT-549 (breast, adherent) yielded an AUC of 0.976 and an IC50 greater than 4 µM. Work on CAL-54 (kidney, adherent) yielded an AUC of 0.891 and an IC50 greater than 4 µM. With CL-40 (large intestine, adherent) the AUC was 0.855 and the IC50 was greater than 4 µM. Cell Line “CML-T1 (chronic myeloid leukaemia, suspension)” has an AUC of 0.963 and an IC50 greater than 4 µM. CRO-AP2 (B-cell lymphoma, suspension) showed an AUC of 0.86 and an IC50 of 2.66 µM. With “ChaGo-K-1 (non-small cell lung carcinoma, adherent)” the AUC was 0.878 and the IC50 was greater than 4 µM. GAMG (glioma, adherent) gave an AUC of 0.938 and an IC50 greater than 4 µM. Work on HCC1806 (breast, adherent) yielded an AUC of 0.958 and an IC50 greater than 4 µM. With HLE (liver, adherent) the AUC was 0.915 and the IC50 was greater than 4 µM. For IGROV-1 (ovary, adherent), the AUC was 0.878 and the IC50 was greater than 4 µM. JEKO-1 (B-cell lymphoma, suspension) was tested, and the AUC was 0.852 and the IC50 was 2.9 µM. “KARPAS-1106P (B-cell lymphoma, suspension)” gave an AUC of 0.976 and an IC50 greater than 4 µM. LN-405 (glioma, adherent) showed an AUC of 0.953 and an IC50 greater than 4 µM. For MDA-MB-157 (breast, adherent), the AUC was 0.948 and the IC50 was greater than 4 µM. MEL-HO (melanoma, adherent) was tested, and the AUC was 0.96 and the IC50 was greater than 4 µM. In the case of MKN1 (stomach, adherent), the AUC is reported as 0.943 and the IC50 is reported as greater than 4 µM. “NCI-H522 (lung adenocarcinoma, adherent)” gave an AUC of 0.969 and an IC50 greater than 4 µM. “NCI-H2030 (lung adenocarcinoma, adherent)” gave an AUC of 0.827 and an IC50 of 2.92 µM. Work on “NCI-H2085 (lung adenocarcinoma, adherent)” yielded an AUC of 0.976 and an IC50 greater than 4 µM. NUGC-3 (stomach, adherent) gave an AUC of 0.962 and an IC50 greater than 4 µM. In the case of OAW-28 (ovary, adherent), the AUC is reported as 0.919 and the IC50 is reported as greater than 4 µM. With PANC-10-05 (pancreas, adherent) the AUC was 0.899 and the IC50 was greater than 4 µM. RERF-GC-1B (stomach, adherent) showed an AUC of 0.736 and an IC50 of 1.29 µM. Cell Line SU-DHL-5 (B-cell lymphoma, suspension) has an AUC of 0.804 and an IC50 of 1.44 µM. Work on “SW900 (lung squamous cell carcinoma, adherent)” yielded an AUC of 0.9 and an IC50 greater than 4 µM. For Saos-2 (osteosarcoma, adherent), the AUC was 0.708 and the IC50 was 1.25 µM. TCCSUP (bladder, adherent) was tested, and the AUC was 0.948 and the IC50 was greater than 4 µM. With U031 (kidney, adherent) the AUC was 0.943 and the IC50 was greater than 4 µM. VM-CUB-1 (bladder, adherent) showed an AUC of 0.987 and an IC50 greater than 4 µM.

What follows are cell lines tested with O=C1NC(=O)c2c1c(-c1ccccc1Cl)cc1[nH]c3ccc(O)cc3c21 [Wee1 inhibitor 681640] in the same assay as above. Details: top dose 2 µM; top dose inferred.
Procedure: as §1
Work on 786-0 (kidney, adherent) yielded an AUC of 0.931 and an IC50 greater than 2000 nM. With A172 (glioma, adherent) the AUC was 0.972 and the IC50 was greater than 2000 nM. BALL-1 (B-cell leukaemia, suspension) gave an AUC of 0.995 and an IC50 greater than 2000 nM. BCPAP (thyroid, adherent) gave an AUC of 0.974 and an IC50 greater than 2000 nM. With BHY (head and neck, adherent) the AUC was 0.846 and the IC50 was 1470 nM. In the case of BPH-1 (prostate, adherent), the AUC is reported as 0.822 and the IC50 is reported as 1340 nM. In the case of BT-549 (breast, adherent), the AUC is reported as 0.962 and the IC50 is reported as greater than 2000 nM. Cell Line CAL-54 (kidney, adherent) has an AUC of 0.868 and an IC50 greater than 2000 nM. CHP-134 (neuroblastoma, suspension) was tested, and the AUC was 0.844 and the IC50 was greater than 2000 nM. For CL-40 (large intestine, adherent), the AUC was 0.966 and the IC50 was greater than 2000 nM. For “CML-T1 (chronic myeloid leukaemia, suspension)”, the AUC was 0.967 and the IC50 was greater than 2000 nM. For CRO-AP2 (B-cell lymphoma, suspension), the AUC was 0.976 and the IC50 was greater than 2000 nM. Cell Line “ChaGo-K-1 (non-small cell lung carcinoma, adherent)” has an AUC of 0.962 and an IC50 greater than 2000 nM. GAMG (glioma, adherent) was tested, and the AUC was 0.855 and the IC50 was 1720 nM. For HCC1806 (breast, adherent), the AUC was 0.875 and the IC50 was 1690 nM. HLE (liver, adherent) gave an AUC of 0.946 and an IC50 greater than 2000 nM. Cell Line IGROV-1 (ovary, adherent) has an AUC of 0.894 and an IC50 greater than 2000 nM. JEKO-1 (B-cell lymphoma, suspension) showed an AUC of 0.927 and an IC50 greater than 2000 nM. Work on “KARPAS-1106P (B-cell lymphoma, suspension)” yielded an AUC of 0.98 and an IC50 greater than 2000 nM. For LN-405 (glioma, adherent), the AUC was 0.975 and the IC50 was greater than 2000 nM. For MDA-MB-157 (breast, adherent), the AUC was 0.877 and the IC50 was greater than 2000 nM. MEL-HO (melanoma, adherent) was tested, and the AUC was 0.92 and the IC50 was greater than 2000 nM. MKN1 (stomach, adherent) showed an AUC of 0.953 and an IC50 greater than 2000 nM. MM1S (myeloma, suspension) was tested, and the AUC was 0.98 and the IC50 was greater than 2000 nM. “NCI-H522 (lung adenocarcinoma, adherent)” gave an AUC of 0.934 and an IC50 greater than 2000 nM. “NCI-H2030 (lung adenocarcinoma, adherent)” showed an AUC of 0.835 and an IC50 of 1580 nM. With “NCI-H2085 (lung adenocarcinoma, adherent)” the AUC was 0.906 and the IC50 was greater than 2000 nM. In the case of NUGC-3 (stomach, adherent), the AUC is reported as 0.906 and the IC50 is reported as greater than 2000 nM. Cell Line OAW-28 (ovary, adherent) has an AUC of 0.879 and an IC50 greater than 2000 nM. Cell Line PANC-10-05 (pancreas, adherent) has an AUC of 0.958 and an IC50 greater than 2000 nM. With RERF-GC-1B (stomach, adherent) the AUC was 0.969 and the IC50 was greater than 2000 nM. With SU-DHL-5 (B-cell lymphoma, suspension) the AUC was 0.979 and the IC50 was greater than 2000 nM. “SW900 (lung squamous cell carcinoma, adherent)” gave an AUC of 0.91 and an IC50 greater than 2000 nM. Saos-2 (osteosarcoma, adherent) gave an AUC of 0.938 and an IC50 greater than 2000 nM. TCCSUP (bladder, adherent) gave an AUC of 0.935 and an IC50 greater than 2000 nM. Cell Line U031 (kidney, adherent) has an AUC of 0.936 and an IC50 greater than 2000 nM. VM-CUB-1 (bladder, adherent) was tested, and the AUC was 0.923 and the IC50 was greater than 2000 nM.

Each cell line was assayed with Cc1cccc(-c2[nH]c(C(C)(C)C)nc2-c2ccc3nccnc3c2)n1 [SB-525334] in the same assay as above. Details: top dose 20 µM; top dose inferred.
Procedure: as §1
With 786-0 (kidney, adherent) the AUC was 0.972 and the IC50 was greater than 20 µM. Cell Line A172 (glioma, adherent) has an AUC of 0.966 and an IC50 greater than 20 µM. Work on BCPAP (thyroid, adherent) yielded an AUC of 0.98 and an IC50 greater than 20 µM. BHY (head and neck, adherent) was tested, and the AUC was 0.974 and the IC50 was greater than 20 µM. BPH-1 (prostate, adherent) showed an AUC of 0.966 and an IC50 greater than 20 µM. In the case of CAL-54 (kidney, adherent), the AUC is reported as 0.979 and the IC50 is reported as greater than 20 µM. Cell Line CHP-134 (neuroblastoma, suspension) has an AUC of 0.878 and an IC50 greater than 20 µM. “ChaGo-K-1 (non-small cell lung carcinoma, adherent)” gave an AUC of 0.955 and an IC50 greater than 20 µM. GAMG (glioma, adherent) was tested, and the AUC was 0.748 and the IC50 was 6.7 µM. HCC1806 (breast, adherent) was tested, and the AUC was 0.979 and the IC50 was greater than 20 µM. Cell Line HLE (liver, adherent) has an AUC of 0.963 and an IC50 greater than 20 µM. LN-405 (glioma, adherent) showed an AUC of 0.964 and an IC50 greater than 20 µM. MDA-MB-157 (breast, adherent) was tested, and the AUC was 0.979 and the IC50 was greater than 20 µM. MKN1 (stomach, adherent) showed an AUC of 0.944 and an IC50 greater than 20 µM. Cell Line “NCI-H522 (lung adenocarcinoma, adherent)” has an AUC of 0.961 and an IC50 greater than 20 µM. “NCI-H2030 (lung adenocarcinoma, adherent)” showed an AUC of 0.972 and an IC50 greater than 20 µM. “NCI-H2085 (lung adenocarcinoma, adherent)” was tested, and the AUC was 0.983 and the IC50 was greater than 20 µM. For NUGC-3 (stomach, adherent), the AUC was 0.961 and the IC50 was greater than 20 µM. OAW-28 (ovary, adherent) was tested, and the AUC was 0.855 and the IC50 was greater than 20 µM. PANC-10-05 (pancreas, adherent) gave an AUC of 0.977 and an IC50 greater than 20 µM. In the case of RERF-GC-1B (stomach, adherent), the AUC is reported as 0.844 and the IC50 is reported as 16.9 µM. For SU-DHL-5 (B-cell lymphoma, suspension), the AUC was 0.829 and the IC50 was 8.5 µM. “SW900 (lung squamous cell carcinoma, adherent)” gave an AUC of 0.944 and an IC50 greater than 20 µM. Work on Saos-2 (osteosarcoma, adherent) yielded an AUC of 0.981 and an IC50 greater than 20 µM. With TCCSUP (bladder, adherent) the AUC was 0.976 and the IC50 was greater than 20 µM. Work on U031 (kidney, adherent) yielded an AUC of 0.983 and an IC50 greater than 20 µM. Cell Line VM-CUB-1 (bladder, adherent) has an AUC of 0.985 and an IC50 greater than 20 µM.

What follows are cell lines tested with CC(C)=CC[C@@H](O)C1=CC(=O)c2c(O)ccc(O)c2C1=O [Shikonin] in the same assay as above. Details: top dose 16 µM; top dose inferred.
Procedure: as §1
786-0 (kidney, adherent) was tested, and the AUC was 0.432 and the IC50 was 662 nM. With A172 (glioma, adherent) the AUC was 0.448 and the IC50 was 727 nM. For BCPAP (thyroid, adherent), the AUC was 0.437 and the IC50 was 684 nM. BHY (head and neck, adherent) was tested, and the AUC was 0.37 and the IC50 was 437 nM. With BPH-1 (prostate, adherent) the AUC was 0.501 and the IC50 was 1010 nM. CAL-54 (kidney, adherent) showed an AUC of 0.565 and an IC50 of 1540 nM. In the case of “ChaGo-K-1 (non-small cell lung carcinoma, adherent)”, the AUC is reported as 0.451 and the IC50 is reported as 718 nM.
